# According to the supplement of paper PMC11741623:
# Some of the results follow. Interaction screen of human proteins with wild-type SARS-CoV-2 proteins by split-DHFR complementation in yeast, 1 µg/mL methotrexate. Value = fitness of the pair (three or more lineages) minus that of the viral protein without a human partner, on a scale set by negative (0) and fused positive (1) controls, mean of up to three cultures; higher = more likely to interact. Active = false discovery rate below 0.05 (one-sided t-test) in at least one culture. Nearly all pairs are not hits, and differences among them are mostly noise (correlation between cultures about 0.3); most hits were seen in one culture only. Human sequences are the Swiss-Prot entries looked up by gene name; the clone may be another isoform. NSP2 values were corrected by the authors for a growth advantage. Listed are human proteins with a hit and a random twelfth of the others.
# B1: C6orf136, Q5SQH8 (protein)
# chain: MYQPSRGAARRLGPCLRAYQARPQDQLYPGTLPFPPLWPHSTTTTSPSSPLFWSPLPPRLPTQRLPQVPPLPLPQIQALSSAWVVLPPGKGEEGPGPELHSGCLDGLRSLFEGPPCPYPGAWIPFQVPGTAHPSPATPSGDPSMEEHLSVMYERLRQELPKLFLQSHDYSLYSLDVEFINEILNIRTKGRTWYILSLTLCRFLAWNYFAHLRLEVLQLTRHPENWTLQARWRLVGLPVHLLFLRFYKRDKDEHYRTYDAYSTFYLNSSGLICRHRLDKLMPSHSPPTPVKKLLVGALVALGLSEPEPDLNLCSKP
# B2: CASC4, Q6P4E1 (protein)
# chain: MVGFGANRRAGRLPSLVLVVLLVVIVVLAFNYWSISSRHVLLQEEVAELQGQVQRTEVARGRLEKRNSDLLLLVDTHKKQIDQKEADYGRLSSRLQAREGLGKRCEDDKVKLQNNISYQMADIHHLKEQLAELRQEFLRQEDQLQDYRKNNTYLVKRLEYESFQCGQQMKELRAQHEENIKKLADQFLEEQKQETQKIQSNDGKELDINNQVVPKNIPKVAENVADKNEEPSSNHIPHGKEQIKRGGDAGMPGIEENDLAKVDDLPPALRKPPISVSQHESHQAISHLPTGQPLSPNMPPDSHINHNGNPGTSKQNPSSPLQRLIPGSNLDSEPRIQTDILKQATKDRVSDFHKLKQSRFFDENESPVDPQHGSKLADYNGDDGNVGEYEADKQAELAYNEEEDGDGGEEDVQDDEERELQMDPADYGKQHFNDVL
# B3: RPA4, Q13156 (protein)
# chain: MSKSGFGSYGSISAADGASGGSDQLCERDATPAIKTQRPKVRIQDVVPCNVNQLLSSTVFDPVFKVRGIIVSQVSIVGVIRGAEKASNHICYKIDDMTAKPIEARQWFGREKVKQVTPLSVGVYVKVFGILKCPTGTKSLEVLKIHVLEDMNEFTVHILETVNAHMMLDKARRDTTVESVPVSPSEVNDAGDNDESHRNFIQDEVLRLIHECPHQEGKSIHELRAQLCDLSVKAIKEAIDYLTVEGHIYPTVDREHFKSAD
# B4: RNF7, Q9UBF6 (protein)
# chain: MADVEDGEETCALASHSGSSGSKSGGDKMFSLKKWNAVAMWSWDVECDTCAICRVQVMDACLRCQAENKQEDCVVVWGECNHSFHNCCMSLWVKQNNRCPLCQQDWVVQRIGK
# Molecular target: SARS-CoV-2 E
# Assay: yeast fitness gain over the viral ORF with no human partner (scaled fitness); higher = more likely to interact
# Method: (§1)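 Split mouse DHFR complementation in pooled diploid yeast: human ORFeome clones carry one fragment and viral ORFs the other; barcoded lineages compete in 1 µg/mL methotrexate and fitness is read by barcode sequencing in up to three cultures.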
row,Binder,yeast fitness gain
1,B1,inactive: -0.0197
2,B2,inactive: 0.0399
3,B3,inactive: 0.0302
4,B4,inactive: 0.0373

# Molecular target: SARS-CoV-2 M
# Assay: as above
# Method: as §1
row,Binder,yeast fitness gain
1,B1,inactive: 0.0414
2,B3,inactive: -0.0141
3,B4,inactive: -0.0735

# Molecular target: SARS-CoV-2 N
# Assay: as above
# Method: as §1
row,Binder,yeast fitness gain
1,B1,inactive: -0.0264
2,B2,inactive: 0.00512
3,B3,inactive: -0.0293
4,B4,inactive: -0.0176

# Molecular target: SARS-CoV-2 NSP1
# Assay: as above
# Method: as §1
row,Binder,yeast fitness gain
1,B1,inactive: -0.158
2,B3,inactive: 0.0765
3,B4,inactive: 0.0137

# Molecular target: SARS-CoV-2 NSP10
# Assay: as above
# Method: as §1
row,Binder,yeast fitness gain
1,B1,inactive: -0.0426
2,B3,inactive: 0.0583
3,B4,inactive: 0.021

# Molecular target: SARS-CoV-2 NSP12
# Assay: as above
# Method: as §1
row,Binder,yeast fitness gain
1,B1,inactive: -0.00457
2,B3,inactive: 0.0158
3,B4,inactive: 0.0354

# Molecular target: SARS-CoV-2 NSP13
# Assay: as above
# Method: as §1
row,Binder,yeast fitness gain
1,B1,inactive: 0.0603
2,B3,inactive: 0.0237
3,B4,inactive: 0.0532

# Molecular target: SARS-CoV-2 NSP15
# Assay: as above
# Method: as §1
row,Binder,yeast fitness gain
1,B1,inactive: -0.0245
2,B3,inactive: 0.101
3,B4,inactive: -0.107

# Molecular target: SARS-CoV-2 NSP16
# Assay: as above
# Method: as §1
row,Binder,yeast fitness gain
1,B1,inactive: 0.0236
2,B3,inactive: 0.057
3,B4,inactive: 0.039

# Molecular target: SARS-CoV-2 NSP2
# Assay: as above
# Method: as §1
row,Binder,yeast fitness gain
1,B1,inactive: -0.123
2,B3,active: 0.356
3,B4,inactive: -0.114

# Molecular target: SARS-CoV-2 NSP5
# Assay: as above
# Method: as §1
row,Binder,yeast fitness gain
1,B1,inactive: 0.00149
2,B3,inactive: -0.0099
3,B4,inactive: 0.0098

# Molecular target: SARS-CoV-2 NSP6
# Assay: as above
# Method: as §1
row,Binder,yeast fitness gain
1,B1,inactive: -0.00592
2,B3,inactive: -0.022
3,B4,inactive: 0.0137

# Molecular target: SARS-CoV-2 NSP7
# Assay: as above
# Method: as §1
row,Binder,yeast fitness gain
1,B1,inactive: -0.121
2,B3,inactive: 0.073
3,B4,inactive: 0.0942

# Molecular target: SARS-CoV-2 NSP8
# Assay: as above
# Method: as §1
row,Binder,yeast fitness gain
1,B1,inactive: 0.00431
2,B3,inactive: 0.0221
3,B4,inactive: 0.0692

# Molecular target: SARS-CoV-2 NSP9
# Assay: as above
# Method: as §1
row,Binder,yeast fitness gain
1,B1,inactive: -0.0937
2,B3,inactive: 0.0418
3,B4,inactive: 0.0312

# Molecular target: SARS-CoV-2 ORF10
# Assay: as above
# Method: as §1
row,Binder,yeast fitness gain
1,B1,inactive: 0.000914
2,B3,inactive: 0.0421
3,B4,inactive: 0.0377

# Molecular target: SARS-CoV-2 ORF3A
# Assay: as above
# Method: as §1
row,Binder,yeast fitness gain
1,B1,inactive: -0.0323
2,B3,inactive: 0.0176
3,B4,inactive: -0.197

# Molecular target: SARS-CoV-2 ORF3B
# Assay: as above
# Method: as §1
row,Binder,yeast fitness gain
1,B1,inactive: -0.00863
2,B3,inactive: 0.0314
3,B4,inactive: 0.0415

# Molecular target: SARS-CoV-2 ORF6
# Assay: as above
# Method: as §1
row,Binder,yeast fitness gain
1,B1,inactive: 0.0162
2,B3,inactive: 0.0338
3,B4,inactive: -0.0148

# Molecular target: SARS-CoV-2 ORF7A
# Assay: as above
# Method: as §1
row,Binder,yeast fitness gain
1,B1,inactive: -0.0267
2,B3,inactive: 0.0266
3,B4,inactive: 0.0923

# Molecular target: SARS-CoV-2 ORF7B
# Assay: as above
# Method: as §1
row,Binder,yeast fitness gain
1,B1,inactive: -0.00534
2,B3,inactive: 3.5e-05
3,B4,inactive: -3.1e-06

# Molecular target: SARS-CoV-2 ORF8
# Assay: as above
# Method: as §1
row,Binder,yeast fitness gain
1,B1,inactive: -0.00115
2,B3,inactive: -0.146
3,B4,inactive: 0.0206

# Molecular target: SARS-CoV-2 ORF9B
# Assay: as above
# Method: as §1
row,Binder,yeast fitness gain
1,B1,inactive: 0.00115
2,B3,inactive: -0.0178
3,B4,inactive: -0.00405

# Molecular target: SARS-CoV-2 ORF9Bwu (the 73-codon ORF)
# Assay: as above
# Method: as §1
row,Binder,yeast fitness gain
1,B1,inactive: -0.137
2,B3,inactive: 0.0146
3,B4,inactive: -0.0362

# Molecular target: SARS-CoV-2 S
# Assay: as above
# Method: as §1
row,Binder,yeast fitness gain
1,B1,inactive: 0.103
2,B3,inactive: 0.0635
3,B4,inactive: 0.0609

# Molecular target: SARS-CoV-2 NSP14
# Assay: as above
# Method: as §1
row,Binder,yeast fitness gain
1,B2,inactive: 0.114
2,B3,inactive: -0.0428
3,B4,inactive: 0.133

# Molecular target: SARS-CoV-2 NSP4
# Assay: as above
# Method: as §1
row,Binder,yeast fitness gain
1,B3,inactive: -0.0459
2,B4,inactive: 0.0913
